Measurements: paper PMC11784026, “Phase 1 study of the safety, tolerability, and pharmacokinetics of a synthetic macrocyclic peptide antibiotic (BRII-693) in healthy adult participants” (Antimicrobial Agents and Chemotherapy, 2024)
Where a SMILES comes first, the peptide text is derived from it. Bridges are numbered along the chain shown (N, C = ends). [ ]: non-standard residue; d: D form. The star is where a group is joined. X1 = O=C(c1ccc(Cl)cc1Cl)*; Dab = NCC[C@H](N)C(=O)O; Abu = CC[C@H](N)C(=O)O; Dap = NC[C@H](N)C(=O)O

Details: in vivo; cohort 12, 150 mg q6h × 14 days, Chinese (4 of 10); COVID-19, upper respiratory tract infection, presyncope

## CC[C@@H]1NC(=O)[C@@H](CC(C)C)NC(=O)[C@H](CCN)NC(=O)[C@@H](NC(=O)[C@H](CN)NC(=O)[C@@H](NC(=O)[C@H](CCN)NC(=O)c2ccc(Cl)cc2Cl)[C@@H](C)O)CCNC(=O)[C@H]([C@@H](C)O)NC(=O)[C@H](CCN)NC(=O)[C@H](CCN)NC1=O [BRII-693] (X1-[Dab]T[Dap][Dab][Dab][dL][Abu][Dab][Dab]T; lactam 4-C; N-terminus assumed)
  Participants who discontinued the study due to AEs: 40.0%
